# Laboratory results taken from publication PMC4336329 (PLoS ONE, 2015).
# In all, about 310,000 compounds went through this assay and about 14,000 (4.5%) showed an effect of 50% or more. Effects have a minus sign here. The list shows a part of the results.
# Molecular target: human ether-à-go-go-related gene (hERG) potassium channel (human, UniProt Q12809)
# Assay: primary screen, population patch clamp on CHO cells stably expressing hERG
# 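Further: peak tail current of the secondary pulse compared with the same well before compound.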
# Sequence of human ether-à-go-go-related gene (hERG) potassium channel (Q12809 whole entry, looked up): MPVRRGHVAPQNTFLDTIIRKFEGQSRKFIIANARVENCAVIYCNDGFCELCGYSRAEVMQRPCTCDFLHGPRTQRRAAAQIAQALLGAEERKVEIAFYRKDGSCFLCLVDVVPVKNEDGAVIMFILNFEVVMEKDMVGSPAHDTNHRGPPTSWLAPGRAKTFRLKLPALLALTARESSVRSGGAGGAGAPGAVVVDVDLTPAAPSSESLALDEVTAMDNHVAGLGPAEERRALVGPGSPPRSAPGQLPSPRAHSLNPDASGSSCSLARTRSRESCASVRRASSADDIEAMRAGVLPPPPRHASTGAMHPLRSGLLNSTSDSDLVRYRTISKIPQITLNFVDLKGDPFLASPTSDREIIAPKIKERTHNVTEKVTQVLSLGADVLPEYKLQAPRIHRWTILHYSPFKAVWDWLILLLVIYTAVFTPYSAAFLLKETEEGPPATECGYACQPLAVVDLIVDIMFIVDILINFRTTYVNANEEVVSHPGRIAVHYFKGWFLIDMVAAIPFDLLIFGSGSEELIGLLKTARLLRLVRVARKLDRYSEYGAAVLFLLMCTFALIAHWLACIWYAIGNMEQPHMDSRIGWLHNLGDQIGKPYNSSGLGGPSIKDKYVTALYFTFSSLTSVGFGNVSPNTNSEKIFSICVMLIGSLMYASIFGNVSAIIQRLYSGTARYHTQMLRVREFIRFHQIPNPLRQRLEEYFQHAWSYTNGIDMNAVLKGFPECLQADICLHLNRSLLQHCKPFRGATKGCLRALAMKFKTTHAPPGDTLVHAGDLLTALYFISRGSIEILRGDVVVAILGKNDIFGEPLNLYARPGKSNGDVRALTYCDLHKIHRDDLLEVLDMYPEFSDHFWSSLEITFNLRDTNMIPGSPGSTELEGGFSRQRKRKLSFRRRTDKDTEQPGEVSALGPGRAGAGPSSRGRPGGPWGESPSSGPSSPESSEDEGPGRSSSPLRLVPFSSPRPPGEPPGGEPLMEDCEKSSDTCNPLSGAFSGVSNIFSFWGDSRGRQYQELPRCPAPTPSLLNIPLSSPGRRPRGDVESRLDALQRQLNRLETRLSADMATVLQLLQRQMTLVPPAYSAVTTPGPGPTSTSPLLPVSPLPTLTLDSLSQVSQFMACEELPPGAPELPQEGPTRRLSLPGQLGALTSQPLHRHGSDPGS
row,Structure (SMILES),"hERG current change (%, negative = inhibition) at 10uM [%]"
1,O=C(Nc1ccc(S(=O)(=O)Nc2cnc3ccccc3n2)cc1)c1ccc(Cl)cc1Cl,0.829
2,COc1ccccc1N(C)S(=O)(=O)c1ccc(C(=O)Nc2nc(C)cs2)cc1,-8.38
3,CC(OC(=O)CSc1ccc([N+](=O)[O-])cc1)C(=O)NC1CC1 (centres unmarked),-14.7
4,Cc1cc(C)c2oc(C(=O)N3CCN(Cc4ccccc4)CC3)cc(=O)c2c1,-42.9
5,Cc1cc[n+]2n1CC(O)C2.[Cl-] (centres unmarked),9.59
6,Cc1c(C(=O)N2CCCC2)c(S(=O)(=O)NCCc2ccccc2)c(C)n1C,10.1
7,CCC(=O)N1CCc2cc(S(=O)(=O)CCC(=O)O)ccc21,24.6
8,Cc1ccc(NC(=O)N2CCC(NC(=O)c3ccco3)CC2)cc1,4.55
9,Cc1ccc(NC(=O)Nc2nnc(-c3ccccc3F)s2)cc1,10.8
10,COC(=O)c1ccccc1NC(=S)NC(NC(=O)COc1ccccc1)C(Cl)(Cl)Cl (centres unmarked),7.66
11,O=C(Nc1ccc2ccccc2c1)c1ccc(Br)o1,19.8
12,COc1ccc(N2CCN(C(=O)c3ccc(S(=O)(=O)N4CCOCC4)cc3)CC2)cc1,-9.7
13,Cc1cccc(CCNC(=O)c2cc(=O)[nH]c3ccc(Br)cc23)c1,-0.339
14,CCN(CC)C(=O)COc1ccc2c(c1)C(=O)CC(C)(C)O2,27.7
15,Cc1nc(Nc2ccccc2)c2oc3ccc(Cl)cc3c2n1,7.31
16,CC(=O)Nc1sc(C)c(C)c1C(=O)OCC(=O)Nc1cc(S(=O)(=O)N2CCCCC2)ccc1Cl,8.54
17,COc1ccc2c(C(=O)c3ccc(Cl)cc3)n(CCCC(N)=O)[n+]([O-])c2c1,-55.5
18,COc1cccc(N2CCN(C(=O)CC(NC(=O)c3ccccc3)c3ccccc3)CC2)c1 (centres unmarked),-65
19,COc1cccc(C(C(=O)NCC2CCCO2)N(C(=O)Cn2nnc3ccccc32)c2ccc(NC(C)=O)cc2)c1OC (centres unmarked),6.49
20,CCOC(=O)C1CCCN(C(=O)COC(=O)c2cc(=O)c3ccccc3o2)C1 (centres unmarked),7.13
21,O=C(O)/C(=C\c1cccc(O)c1)c1ccc(S(=O)(=O)N2CCCC2)s1,-9.38
22,CC(Sc1nc(N)cc(=O)[nH]1)C(=O)NNC(=O)c1cccc(Cl)c1 (centres unmarked),0.647
23,O=C(c1ccco1)N1CCN(c2ccccc2F)CC1,-2.71
